Some of the results follow.

For the experiment, the target named is T1, MBP-FoxP1dN (Mus musculus, UniProt P58462 326-579).
T1 sequence: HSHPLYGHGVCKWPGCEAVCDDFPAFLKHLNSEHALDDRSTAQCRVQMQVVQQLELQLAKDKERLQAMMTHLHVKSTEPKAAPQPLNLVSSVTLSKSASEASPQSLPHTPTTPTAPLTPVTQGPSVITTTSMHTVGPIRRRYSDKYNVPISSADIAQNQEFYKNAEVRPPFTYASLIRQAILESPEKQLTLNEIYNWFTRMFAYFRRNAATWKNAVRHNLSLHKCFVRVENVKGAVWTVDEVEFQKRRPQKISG
Nature of the experiment: PD-seq (MBP pull-down with sequencing); 20 mM Tris-HCl pH 7.5, 100 mM NaCl, 1.5 mM MgCl2, 0.4 uM protein, 0.1 uM dsDNA library, 30 min, room temperature, amylose pull-down; high values mean tight binding. The settings on record: protein: recombinant; tags: His6-MBP; chain copies: 2; dsDNA, one strand shown. A digest of the protocol:
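E. coli-expressed mouse FoxP3 or FoxP1 fragment, N-terminus removed and tagged with His6-MBP, was used at 0.4 µM against 0.1 µM of a Klenow-filled degenerate double-stranded DNA library. After 30 min at room temperature in Tris pH 7.5 buffer with NaCl and MgCl2, complexes were pulled down on amylose resin and washed three times. Binding is pull-down over input reads-per-million enrichment from pooled replicates of the proteinase K-released, PCR-barcoded, Illumina-sequenced DNA.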
With “GATGATTGTTCTCCCAGCTGATGAATTGCATGGTTCGAGTAAACAAATTTTCCTAATCTTTCTGTTCAAGCGCCATCTAC”, the binding signal is 1.06 RPM ratio (pull-down/input).

With “GATGATTGTTCTCCCAGCTGATGAATTCCGGCCCTCGAGTAAACAAATTTTCCTAATCTTTCTGTTCAAGCGCCATCTAC”, the binding signal was 0.716 RPM ratio (pull-down/input).

Consider “GATGATTGTTCTCCCAGCTGATGAATTATTCTTATCGAGTAAACAAATTTTCCTAATCTTTCTGTTCAAGCGCCATCTAC”, for which the binding signal is 1.08 RPM ratio (pull-down/input).

Consider “GATGATTGTTCTCCCAGCTGATGAATTCGCACTATCGAGTAAACAAATTTTCCTAATCTTTCTGTTCAAGCGCCATCTAC”, for which the binding signal was 0.93 RPM ratio (pull-down/input).

“GATGATTGTTCTCCCAGCTGATGAATTATGCATTTCGAGTAAACAAATTTTCCTAATCTTTCTGTTCAAGCGCCATCTAC”: the binding signal is 1.52 RPM ratio (pull-down/input).

With “GATGATTGTTCTCCCAGCTGATGAATTCAACGAATCGAGTAAACAAATTTTCCTAATCTTTCTGTTCAAGCGCCATCTAC”, the binding signal was 0.934 RPM ratio (pull-down/input).

Consider “GATGATTGTTCTCCCAGCTGATGAATTCAAACTTTCGAGTAAACAAATTTTCCTAATCTTTCTGTTCAAGCGCCATCTAC”, for which the binding signal was 1.03 RPM ratio (pull-down/input).

Turning to “GATGATTGTTCTCCCAGCTGATGAATTGGTATCATCGAGTAAACAAATTTTCCTAATCTTTCTGTTCAAGCGCCATCTAC”, the binding signal is 1.18 RPM ratio (pull-down/input).

As for “GATGATTGTTCTCCCAGCTGATGAATTATACCTCTCGAGTAAACAAATTTTCCTAATCTTTCTGTTCAAGCGCCATCTAC”, the binding signal is 0.896 RPM ratio (pull-down/input).

Turning to “GATGATTGTTCTCCCAGCTGATGAATTTGCTCACTCGAGTAAACAAATTTTCCTAATCTTTCTGTTCAAGCGCCATCTAC”, the binding signal was 0.971 RPM ratio (pull-down/input).

Consider “GATGATTGTTCTCCCAGCTGATGAATTGGAGGAGTCGAGTAAACAAATTTTCCTAATCTTTCTGTTCAAGCGCCATCTAC”, for which the binding signal is 0.76 RPM ratio (pull-down/input).

With “GATGATTGTTCTCCCAGCTGATGAATTATTTGCGTCGAGTAAACAAATTTTCCTAATCTTTCTGTTCAAGCGCCATCTAC”, the binding signal is 1.66 RPM ratio (pull-down/input).

Take “GATGATTGTTCTCCCAGCTGATGAATTCGAAGCCTCGAGTAAACAAATTTTCCTAATCTTTCTGTTCAAGCGCCATCTAC”: the binding signal was 0.807 RPM ratio (pull-down/input).

As for “GATGATTGTTCTCCCAGCTGATGAATTTAATTGTTCGAGTAAACAAATTTTCCTAATCTTTCTGTTCAAGCGCCATCTAC”, the binding signal was 1.34 RPM ratio (pull-down/input).

In the case of “GATGATTGTTCTCCCAGCTGATGAATTGAAATTATCGAGTAAACAAATTTTCCTAATCTTTCTGTTCAAGCGCCATCTAC”, the binding signal was 1.01 RPM ratio (pull-down/input).

In the case of “GATGATTGTTCTCCCAGCTGATGAATTCTTACCCTCGAGTAAACAAATTTTCCTAATCTTTCTGTTCAAGCGCCATCTAC”, the binding signal is 0.832 RPM ratio (pull-down/input).

Turning to “GATGATTGTTCTCCCAGCTGATGAATTTAGTCTATCGAGTAAACAAATTTTCCTAATCTTTCTGTTCAAGCGCCATCTAC”, the binding signal is 1.08 RPM ratio (pull-down/input).

With “GATGATTGTTCTCCCAGCTGATGAATTCTTCTTGTCGAGTAAACAAATTTTCCTAATCTTTCTGTTCAAGCGCCATCTAC”, the binding signal is 0.961 RPM ratio (pull-down/input).

As to “GATGATTGTTCTCCCAGCTGATGAATTGTGGAACTCGAGTAAACAAATTTTCCTAATCTTTCTGTTCAAGCGCCATCTAC”, the binding signal is 0.871 RPM ratio (pull-down/input).

Turning to “GATGATTGTTCTCCCAGCTGATGAATTGCGACATTCGAGTAAACAAATTTTCCTAATCTTTCTGTTCAAGCGCCATCTAC”, the binding signal was 1.17 RPM ratio (pull-down/input).

As for “GATGATTGTTCTCCCAGCTGATGAATTACGGGATTCGAGTAAACAAATTTTCCTAATCTTTCTGTTCAAGCGCCATCTAC”, the binding signal is 0.949 RPM ratio (pull-down/input).

In the case of “GATGATTGTTCTCCCAGCTGATGAATTCGCATATTCGAGTAAACAAATTTTCCTAATCTTTCTGTTCAAGCGCCATCTAC”, the binding signal is 0.873 RPM ratio (pull-down/input).

On to “GATGATTGTTCTCCCAGCTGATGAATTGGAAGAGTCGAGTAAACAAATTTTCCTAATCTTTCTGTTCAAGCGCCATCTAC”, for which the binding signal is 0.869 RPM ratio (pull-down/input).

Regarding “GATGATTGTTCTCCCAGCTGATGAATTCTTGAGGTCGAGTAAACAAATTTTCCTAATCTTTCTGTTCAAGCGCCATCTAC”, the binding signal was 0.819 RPM ratio (pull-down/input).

In the case of “GATGATTGTTCTCCCAGCTGATGAATTAGAAACTTCGAGTAAACAAATTTTCCTAATCTTTCTGTTCAAGCGCCATCTAC”, the binding signal was 0.892 RPM ratio (pull-down/input).

Turning to “GATGATTGTTCTCCCAGCTGATGAATTGGCGCGCTCGAGTAAACAAATTTTCCTAATCTTTCTGTTCAAGCGCCATCTAC”, the binding signal was 0.839 RPM ratio (pull-down/input).

“GATGATTGTTCTCCCAGCTGATGAATTTACGAAGTCGAGTAAACAAATTTTCCTAATCTTTCTGTTCAAGCGCCATCTAC”: the binding signal is 1.1 RPM ratio (pull-down/input).

Turning to “GATGATTGTTCTCCCAGCTGATGAATTCTATAGCTCGAGTAAACAAATTTTCCTAATCTTTCTGTTCAAGCGCCATCTAC”, the binding signal is 0.862 RPM ratio (pull-down/input).

Turning to “GATGATTGTTCTCCCAGCTGATGAATTACGGATCTCGAGTAAACAAATTTTCCTAATCTTTCTGTTCAAGCGCCATCTAC”, the binding signal was 0.912 RPM ratio (pull-down/input).

“GATGATTGTTCTCCCAGCTGATGAATTCGCTCAGTCGAGTAAACAAATTTTCCTAATCTTTCTGTTCAAGCGCCATCTAC”: the binding signal is 0.788 RPM ratio (pull-down/input).

For the sequence “GATGATTGTTCTCCCAGCTGATGAATTCAATGGATCGAGTAAACAAATTTTCCTAATCTTTCTGTTCAAGCGCCATCTAC”, the binding signal is 0.883 RPM ratio (pull-down/input).

The values are drawn from article PMC12820563, “FoxP3 forms a head-to-head dimer in vivo and stabilizes its multimerization on adjacent microsatellites”.
